The whole screen tested about 48,000 compounds, of which about 120 (0.25%) were called active. About 4% were inconclusive and are not listed. The call rests on the fitted dose curve; in most records, active means well fitted activation curve with a large enough effect; inconclusive means small, poorly fitted or top-dose-only effect, or another doubt; inactive means no such curve, though single readings can be large or run the other way. Some of the results follow.
Test: Primary qHTS for Identification of Small Molecule Activators of Huntingtin-Antisense Promoter Activity; further: nearly all actives have a fitted effect of over 55% in size
Conditions: HEK293 HTT-AS promoter firefly luciferase reporter, 24 h; series mostly up to 57.5 µM; activity change, positive = activation: at the top concentration
Description: Assay Provider: Russell L. Margolis M.D.
Department Neurology, Johns Hopkins University School of Medicine, Baltimore, MD
Huntington's Disease (HD) is a neurodegenerative disorder caused by a CAG repeat expansion in exon 1 of huntingtin (HTT). While there are currently no disease-modifying treatments for HD, recent efforts have focused on development of nucleotide-based therapeutics to lower HTT expression. As an alternative to siRNA or oligonucleotide methods, we hypothesized that suppression of HTT expression might be accomplished by small molecules that either (1) directly decrease HTT expression by suppressing HTT promoter activity or (2) indirectly decrease HTT expression by increasing the promoter activity of HTT-AS, the gene antisense to HTT that appears to inhibit expression of HTT.
We developed and employed a high throughput screen for modifiers of HTT and HTT-AS promoter activity using luminescent reporter HEK293 cells; of the 52,041 compounds tested, we identified 898 replicable hits. We used a rigorous stepwise approach to assess compound toxicity and the capacity of the compounds to specifically lower huntingtin protein in 5 different cell lines, including HEK293 cells, HD lymphoblastoid cells, mouse primary neurons, HD iPSCs differentiated into cortical-like neurons, and HD hESCs. We found no compounds which were able to lower huntingtin without lowering cell viability in all assays, though the potential efficacy of a few compounds at non-toxic doses could not be excluded.
SEQUENCE No. (1, 2, 3, etc.); […] (e.g., Cells, Incubation, Reagent, etc.); VALUE and DESCRIPTION.
1; Reagent; 4 uL; 2,500 Hek293 luciferase reporter cells per wells
3; Compound; 23 nL; Control inhibitor / compound library
5; Reagent; 2.5 uL; Firefly Luc reagent; Dual-Glo Luciferase Reporter Assay System (Promega)
6; Time; 10 min; room temperature incubation
7; Detection; Luminescence; FLuc
NOTES (numbers refer to sequence above)
1; High-throughput screening, measuring luminescence from a Hek293 luciferase reporter, was performed in 1,536 well white-walled tissue-culture treated plates. 2,500 cells were plated in 4 µL of Opti-MEM per well using a Multidrop Combi Reagent Dispenser (ThermoFisher).
2; Assay plates were cultured for 24 hours.
3; Control inhibitor (PTC124; final concentration of 50 uM) and compound library (at final concentrations of 460 nM - 57.5 uM) were added to the assay plate using the Kalypsis Pintool Robotic System equipped with 1536 pinheads.
4; Cells were then incubated for 24 hours at 37 degrees C prior to luminescence measurements.
5; In all cases, luminescence was measured using the Dual-Glo Luciferase Reporter Assay System (Promega) following the manufacturer's instructions.
6; Room temperature incubation.
7; Luminescence signal was obtained using the PerkinElmer ViewLux plate reader. Results were normalized to vehicle control (0% activity) and zero RLU (-100% activity).

Activity change, positive = activation, inactive:
Cc1nc2nc(C)c(CCC(=O)NCCc3ccccc3)c(C)n2n1 13.2%, O=C(Cn1cc(S(=O)(=O)Cc2ccccc2Cl)c2ccccc21)Nc1cccc(C(F)(F)F)c1 -33.8%, Cc1ccc(S(=O)(=O)N(CC(=O)Nc2c(C)cccc2C)c2cccc(Cl)c2)cc1 -37.9%, CCOc1ccc(C(NC(=O)c2cc(OC)c(OC)c(OC)c2)c2cc(Cl)c3cccnc3c2O)cc1 (centres undefined) -37.2%, CC(C)Oc1cccc(C(=O)Nc2ccc3oc(-c4ccccc4)nc3c2)c1 3.96%, Cc1ccc2nc(CN3CCN(S(=O)(=O)c4ccccc4)CC3)oc2c1 -3.42%, COC(=O)c1cc(C)nc2c1c(=O)nc(SCc1c(C)cc(C)cc1C)n2C1CC1 -39.8%, CCc1ccc(NC(=O)CSc2nc3ccccc3c(=O)n2CCC(=O)NC2CCCCC2)cc1 -0.711%, CCC(Sc1nc2cc3c(cc2c(=O)n1CCCC(=O)NCc1ccc2c(c1)OCO2)OCO3)C(=O)NCCCOC (centres undefined) -9.88%, CCC(=O)N1c2ccc(S(=O)(=O)N3CCCCCC3)cc2CC1C (centres undefined) -18.6%, Cc1ccc(NC(=O)COc2ccc(-c3nn(C)c(=O)c4ccccc34)cc2)c(C)c1 -43.2%, Cc1ccc(O)c([C@H](CCN(C(C)C)C(C)C)c2ccccc2)c1 -8.63%, CSc1nn(Cc2ccc(F)cc2)c(N)c1S(=O)(=O)c1ccc(Cl)cc1 -37.3%, CCCN(CCC)CCCNC(=O)C1CCN(S(=O)(=O)c2cccc3nsnc23)CC1 -1.88%, CCOc1ccc(S(=O)(=O)N2CCN(c3ccc(C)cc3C)CC2)c2ccccc12 -21.5%, COc1cccc(CSc2nc(-c3ccccc3OC)nc3c2Cc2c(CO)cnc(C)c2O3)c1 -35.6%, Cc1ccccc1C(C(=O)NC1CCCC1)N(C(=O)Cn1cnc2ccccc21)c1cccc(F)c1 (centres undefined) -19.4%, CCCCCCCCCCCCCCCCO -5.33%, O=C1COc2ccc(-c3cc(-c4ccc(F)cc4)c4c(n3)-c3ccccc3OC4)cc2N1 -11.5%, CCN(C(=O)c1ccc2c(=O)n3c(nc2c1)CCCCC3)c1cc(C)ccc1C -11.1%, Cc1ccc(C(=O)CC2(O)C(=O)N(Cc3ccccc3)c3ccc(Br)cc32)cc1 (centres undefined) -27.4%, CCCCOC(=O)c1ccc(NC(=O)/C(C#N)=C/c2ccc(C)o2)cc1 -16.3% [at 11.5 µM, percent change from vehicle, -100% = no light], CCCCNS(=O)(=O)c1ccc2nc(-c3cccnc3)cc(C(=O)NCCCOCC)c2c1 3.08%, Cc1ccc(NC(=O)COCc2cc(-c3cccs3)on2)cc1Cl 10.1%, C[C@H]1c2cccc(O)c2C(O)=C2C(=O)[C@]3(O)C(O)=C(C(N)=O)C(=O)[C@@H](N(C)C)[C@@H]3[C@@H](O)[C@@H]21, CCOc1ccccc1CNC(=O)CCn1cccn1 -8.76%, Cc1[nH]c2ccccc2c1C(=O)C(=O)NC1CC(=O)N(c2ccccc2)C1 (centres undefined) -9.53%, COC(=O)c1ccc(NC(=O)CN(c2cccc(C(F)(F)F)c2)S(C)(=O)=O)cc1 -17.6%, Cc1cccc(-n2c(SCC(=O)Nc3ccccc3C)nc3c(oc4ccccc43)c2=O)c1 -29.2%, CCc1ccccc1N1C(=O)N(C)c2ccccc2S1(=O)=O -21.9%, CCn1cc2nc(SCc3cccc(F)c3)n(CCc3ccccc3)c(=O)c2n1 -37.6%, CCC(Cc1ccccc1)NC(=O)Cn1ncc2c3ccccc3n(Cc3ccc(F)cc3)c2c1=O (centres undefined) -14.2%, COc1ccc(Cl)cc1NC(=O)CCCS(=O)(=O)c1nc(-c2ccc(OC)c(OC)c2)cc(C(F)(F)F)n1 -92.1%, O=C(O)CCn1ccc2cc(S(=O)(=O)N3CCCCC3)ccc21 -23.5%, O=C(NCc1ccccc1Cl)C1CCN(c2ncnc3c2nc2n3CCCCC2)CC1 -13.2%, COc1ccc(-c2csc(-c3c(N)c(C(=O)c4ccccc4)n4ccccc34)n2)cc1 0.0736%, COc1ccc2nc3cc(Cl)ccc3c(Nc3cc(CN4CCCC4)c(O)c(CN4CCCC4)c3)c2n1 -6.23%, Cc1cc(C)n2c(Nc3cccc(C(F)(F)F)c3)c(-c3ccsc3)nc2n1 -21.5%, Cc1nnc(NC(=O)CSCc2cc(=O)c3ccc(C)c(C)c3[nH]2)s1 -7.14%, CC(C)c1ccc(S(=O)(=O)c2cnc(SCC(=O)Nc3ccc(F)cc3F)nc2N)cc1 -30.3%, Cc1ccc(-n2nc3c(N4CCC(C(=O)NCCC(C)C)CC4)nnc(C)c3c2C)cc1 -21.1%, Cc1ccc2oc(=O)c3cc(C(=O)Nc4cccc(C#N)c4)sc3c2c1 -6.81%, CCC(=O)N1c2ccccc2CC1C(=O)NCCc1ccc(Cl)cc1 (centres undefined) -2.62%, O=C(CN1CCN(c2ccc(Cl)cc2)CC1)Nc1ccc(F)c(F)c1 -16.3%, O=C(Cn1nnnc1-c1ccccc1F)Nc1ccc(F)c(F)c1 -1.5%, Cc1cc(C)cc(-n2ccnc2SCC(=O)Nc2ccc(C)c(Cl)c2)c1 -18.6%, CCOc1ccccc1NC(=O)c1nnn(CC(=O)Nc2ccccc2CC)c1N -10.8%, COc1ccc(NC(=O)c2[nH]nc3c2CSc2ccccc2-3)c(OC)c1 2.09%, CCCOc1cccc(C2c3c(oc4cc(C)c(C)cc4c3=O)C(=O)N2CCCN2CCOCC2)c1 (centres undefined) -9.18%, CSc1cccc(NC(=O)CN(C)S(=O)(=O)c2ccc3c(c2)CCCN3C(C)=O)c1 -9.77%, CCC(=O)N1CCc2cc(S(=O)(=O)NC(C(=O)NCCc3ccc(C)cc3)C(C)C)ccc21 (centres undefined) -1.83%, Cc1ccc(-c2n[nH]c3c2C(c2cccs2)N(c2ccc(Cl)cc2)C3=O)cc1 (centres undefined) -55.4%, Cc1ccc(C)c(C(=O)CSc2nc3cc(C(=O)NC4CCCC4)ccc3c(=O)n2CC2CCCO2)c1 (centres undefined) 3.33%, COCc1cc(C)n(CC(=O)Nc2cccc(C(C)=O)c2)c(=O)c1C#N -7.7%, Cc1ccc(-c2nc3cc(NC(=O)c4cc(Br)ccc4Cl)ccc3o2)cc1 12.5%, CCOc1ccccc1C(=O)N1CCCCC1CCN1CCOCC1 (centres undefined) -4.42%, CC1CCN(S(=O)(=O)c2cn(CC(=O)Nc3ccc(F)cc3)c(=O)c3ccccc23)CC1 -36.1%, CC(C)CCNC(=O)c1ccc2c(c1)N(C)C(=O)c1ccccc1S2 -18.3%, CO[C@@H]1[C@@H](OC)[C@H](C)[C@@](O)(CC(=O)O)O[C@H]1[C@H](C)[C@H]1O[C@@]2(CC[C@@](C)([C@H]3CC[C@@](C)([C@@H]4O[C@@H]([C@H]5O[C@](C)(O)[C@H](C)C[C@@H]5C)C[C@@H]4OC4C[C@H](OC)[C@@H](OC)[C@H](C)O4)O3)O2)C[C@H](O)[C@H]1C (some centres undefined) -68.6%
